# Results published in the RNAGym collection of RNA variant scans (doi:10.7554/elife.90254).
# Read counts are not given, so values of variants with three or more changes are uncertain.
# B1: LINE1-full (parent)
# chain: UACGUAGGUGGUUUUCCCCUGAUAGUGCUAAGGGGGCCUGGAAGUUUGGACUGGGCAGAGCUCAACACAGCGUGGCAAAGUGGCUGUGGCUAGACUGCCUCUCUGGAUUCCUCGUCACUCAGCAGGGCAUCUCUGAGAGAAAUGCC
# Variants of: B1
# Assay: self-cleavage, relative activity (ratio to wild type); higher = more cleavage; in vitro, sequencing; the parent is a self-cleaving ribozyme
row,Variant,self-cleavage
1,UACGUAGGUGGUUCUCCCCUGAUAGUGCUAAGGGGGCCUGGAAGUUUGGACUGGGCAGAGCUCAACACAGCGUGGCAAAGGGGCUGAGGCUAGACCGCCUCUCUGGAUUCCUCGUCACUCAGCAGGGCAUCUCUGAGAGAAAUGCC,0.05
2,UACGUAGGUGGUUCUCCCCUGAUAGUGCUAAGGGGGCCUGGAAGUUUGGACAGGGCAGAGCUCAACACAGCGUGGCAAAGUGGCUGUGGCUAGACUGCCUCUCUGGAUUCCUCGUCACUCAGCAGGGCAUCUCUGAGAGGAAUGCC,1.18
3,UACGUAGGUGGUUCUCCCCUGAUAGUGCUAAGGGGGCCUGGAAGUUUGGACUGGGCAGAGCUCAACACAGCGAGGCAUAGUGGCUGUGGCUAGACUGCCUCUCUGGAUUCCUCGUCACUCAGCGGGGCAUCUCUGAGAGAAAUGCC,1.39
4,UACGUAGGUGGUUCUCCCCUGAUAGUGCUAAGGGGGCCUGGAAGUUUGGACUGGGCAGAGCCCGACACAGCGUGGCAAAGUGGCUGUGGCUAGACUGCCUCUCUGGAUUCCUCGUCACUCAGCAGGGCGUCUCUGAGAGAAAUGCC,0
5,UACGUAGGUGGUUCUCCCCUGAUAGUGCUAAGGGGGCCUGGAAGUUUGGACUGGGCAGAGCUCAACACAGCGUGGCAAAGUGGCUGAGGCUAGACUGCCUCUCUGGAUACCUCGUCACUCAGCAGGGCACCUCUGAGAGAAAUGCC,0.07
6,UACGUAGGUGGUUCUCCCCUGAUAGUGCUAAGGGGGCCUGGAAGUUUGGACUGGGCAGAGCUCAACACAGCGUGGCAAAGUGGCUGCGGCUAGACUGCCUCUCUGGAUUCCUCGUCUCUCAGCAGGGCAUCUCUGAGAGAAAUGCC,0.32
7,UACGUAGGUGGUUCUCCCCUGAUAGUGCUAAGGGGGCCUGGAAGUUUGGACUGGGCAGAGCUCAACACAGCGUGGCAAAGUGGCUGUGGCUAGACUGCCCCUCUGGAUUCCUCGUCACUCAGCAGGGCAUCUCUGAGAGAGAUGCC,1.68
8,UACGUAGGUGGUUCUCCCCUGAUAGUGCUAAGGGGGCCUGGAAGUUUGGACUGGGCAGAGCUCAACACAGCGUGGCAAAGUGGCUGUGGCUAGACAGCCUCUCUGGAUUCCUCGUCACUCAGCAGGGCAUCUCCGAGAGGAAUGCC,0.21
9,UACGUAGGUGGUUCUCCCCUGAUAGUGCUAAGGGGGCCUGGAAGUUUGGACUGGGCAGAGCUCAACACAGCGUGGCAAAGUGGCAGUGGCUAGACUGCCUCUCUGGACUCCUCGUCACUCAGCAGGGCAUCUCUGAGAGAAAUGCC,0.18
10,UACGUAGGUGGUUCUCCCCUGAUAGUGCUAAGGGGGCCUGGAAGUUUGGACUGGGCAGAGCUCAACACAGCGUGGCAAAGUGGCAGUGGCUAGACUGCCUCUCUGGAAUCCUCGUCACUCAGCAGGGCAUCUCUGAGAGAAAUGCC,0.15
11,UACGUAGGUGGUUCUCCCCUGAUAGUGCUAAGGGGGCCUGGAAGUUUGGACUGGGCAGAGCUCAACACAGCGUGGCAAAGUGGCGGUGGCUAGACUGCCUCUCCGGAUUCCUCGUCACUCCGCAGGGCAUCUCUGAGAGAAAUGCC,0
12,UACGUAGGUGGUUCUCCCCUGAUAGUGCUAAGGGGGCCUGGAAGUUUGGACUGGGCAGAGCUCAACACAGCGAGGCAAAGUGGCUGUGGCUAGACUGCCUCUCUGGAUUCCUCGUCACUCAGCAGGGCAUCUCUGGGAGAAAUGCC,2.03
13,UACGUAGGUGGUUCUCCCCUGAUAGUGCUAAGGGGGCCUGGAAGUUUGGACUGGGCAGAGCUCAACACAGCGCGGCAAAGUGGCUGUGGCUAGACUGCCUCACUGGAUUCCUCGUCACUCAGCAGGGCAUCUCUGAGAGAAAUACC,2
14,UACGUAGGUGGUUCUCCCCUGAUAGUGCUAAGGGGGCCUGGAAGUUUGGACUGGGCAGAGCUCAACACAGCGAGGCAAAGUGGCUGUGGCUAGACCGACUCUCUGGAUUCCUCGUCACUCAUCAGGGCAUCUCUGAGAGGAAUGCC,0.04
15,UACGUAGGUGGUUCUCCCCUGAUAGUGCUAAGGGGGCCUGGAAGUUUGGACUGGGCAGAGCCCAACACAGCGUGGCAAAGAGGCUGCGGCUAGACUGCCUCUCUGGAUUCCUCGUCACUCAGCAGGGCAUCUCUGAGAGAAAUGCC,0.16
16,UACGUAGGUGGUUCUCCCCUGAUAGUGCUAAGGGGGCCUGGAAGUUUGGACUGGGCAGAGCUCAACACAGCGCGGCAAAGUGGCUGUGGCUAAACUGCCUCUCUGGAUUCCUCGUCACUCAGCAGGGCGUCUCUGAGAGAGAUGCC,0
17,UACGUAGGUGGUUCUCCCCUGAUAGUGCUAAGGGGGCCUGGAAGUUUGGACAGGGCAGAGCCCAACACAGCGUGGCAGAGUGGCUGUGGCUAGACUGCCUCUCUGGAUUCCUCGUCACUCAGCAGGGCAUCUCUGAGAGAAAUGCC,0
18,UACGUAGGUGGUUCUCCCCUGAUAGUGCUAAGGGGGCCUGGAAGUUUGGACUGGGCAGAGCUCAACACAGCGAGGCAAAGUGGCUGUGGCUAGACUGCCUCUCUGGAUUCCUCGUCACUCAGCAGGGCAUCUCUGAGAGAAGUGCC,1.43
19,UACGUAGGUGGUUCUCCCCUGAUAGUGCUAAGGGGGCCUGGAAGUUUGGACUGGGCAGAGCUCAACACAGCGUGGCAAAGUGGCUGAGGCUAGACUGCCUCUCUGGAUUCCUCGUCACUCAGCGGGGCAUCCCUGAGAGAAAUGCC,0.04
20,UACGUAGGUGGUUCUCCCCUGAUAGUGCUAAGGGGGCCUGGAAGUUUGGACUGGGCAGAGCUCAACACAGCGAGUCAAAGUGGCUGUGGCUAGACUGUCCCUCCGGAUUCCUCGUCACUCAGCAGGGCAUCUCUGAGAGAAAUGCC,1.39

row,Variant,self-cleavage
1,UACGUAGGUGGUUCUCCCCUGAUAGUGCUAAGGGGGCCUGGAAGUUUGGACUGGGCAGAGCUCAACACAGCGUGGCAAAGUGGCUGCGGCUAGACUGCCUCUCUGGAUUCCUCGUCACUCAGCAGGGCAUCUCUGAGAGAAACGCC,0.46
2,UACGUAGGUGGUUCUCCCCUGAUAGUGCUAAGGGGGCCUGGAAGUUUGGACUGGGCAGAGCUCAACACAGCGUGGCAAAGUGGCCGUGGCUAGACUGCCUCUCUGGAAUCCUCGUCACUCAGCAGGGCAUCUCUGAGAGAAAUGCC,0.37
3,UACGUAGGUGGUUCUCCCCUGAUAGUGCUAAGGGGGCCUGGAAGUUUGGACUGGGCAGAGCCCAACACAGCGUGGCAAAGUGGCUGUGGCUAGACUGCCACUCUGGAUUCCUCGUCACUCAGCAGGGCAUCUCUGAGAGAAAUGCC,0.18
4,UACGUAGGUGGUUCUCCCCUGAUAGUGCUAAGGGGGCCUGGAAGUUUGGACUGGGCAGAGCCCAACACAGCGUGGCAAAGUGGCUGUGGCUUGACUGCCUCUCUGGAUUCCUCGUCACUCAGCAGGGCAUCUCUGAGAGAAAUGCC,0.05
5,UACGUAGGUGGUUCUCCCCUGAUAGUGCUAAGGGGGCCUGGAAGUUUGGACAGGGCAGAGCUCAACACAGCGUGGCAAAGUGGCUGUGGCUAGUCUGCCUCUCUGGAUUCCUCGUCACUCAGCAGGGCAUCUCUGAGAGAUAUGCC,0.35
6,UACGUAGGUGGUUCUCCCCUGAUAGUGCUAAGGGGGCCUGGAAGUUUGGACUGGGCAGAGCUCAACACAGCGUGGCAAAGUGGCAGUGGCUAGACUGCCUCUCUGGAUUCCUCGUCACUCAGCAGGGCAUCUCUGAGAGGGAUGCC,0.11
7,UACGUAGGUGGUUCUCCCCUGAUAGUGCUAAGGGGGCCUGGAAGUUUGGACUGGGCAGAGCUCAACACAGCGUGGCAAAGUGGCUGUGGCUAGACUGCCUCCCUGGAUUCCUCGUCACUCAGCGGGGCAUCUCUGAGGGAAAUGCC,0.84
8,UACGUAGGUGGUUCUCCCCUGAUAGUGCUAAGGGGGCCUGGAAGUUUGGACUGGGCAGAGCCCAACACAGCGUGGCAAAGUGGCUGUGGCUAGACUGCCUCUCUGGAUUCCUCGUCACUCAGCAGGGCGUCUCUGAGAGAAAUGCC,0.07
9,UACGUAGGUGGUUCUCCCCUGAUAGUGCUAAGGGGGCCUGGAAGUUUGGACUGGGCAGAGCACAACACAGCGUGGCAAAGUGGCUGUGGCUAGACUGCCUCUCUGGAUCCCUCGUCACUCAGCAGGGCAUCUCUGAGAGAAAUGCC,0
10,UACGUAGGUGGUUCUCCCCUGAUAGUGCUAAGGGGGCCUGGAAGUUUGGACUGGGCAGAGCCCAACACAGCGUGGCAAAGUGGCUGUGACUAGACUGCCUCUCUGGAUUCCUCGUCACUCAGCAGGGCUUCUCUGAGAGGAAUGCC,0.07
11,UACGUAGGUGGUUCUCCCCUGAUAGUGCUAAGGGGGCCUGGAAGUUUGGACUGGGCAGAGCACAACACAGCGUGGCAAAGUGGCUGUGGCUAGACUGCCUCUCCGGAUUCCUCGUCACUCAGCAGGGCAUCUCUGAGAGAAAUGCC,0.08
12,UACGUAGGUGGUUCUCCCCUGAUAGUGCUAAGGGGGCCUGGAAGUUUGGACUGGGCAGAGCUCAACACAGCGCGGCGAAGUGGCUGUGGCUUGACUGCCUCUCUGGAUUCCUCGUCACUCAGCAGGGCUUCUCUGAGAGAAAUGCC,0
13,UACGUAGGUGGUUCUCCCCUGAUAGUGCUAAGGGGGCCUGGAAGUUUGGACGGGGCAGAGCUCAACACAGCGUGGCAAAGUGGCUGUGGCUAGACUGCCUCUCUGGAUUCCUCGUCACCCUGCAGGGCAUCUCUGAGAGAAAUGCC,1.15
14,UACGUAGGUGGUUCUCCCCUGAUAGUGCUAAGGGGGCCUGGAAGUUUGGACUGGGCAGAGCCCAACACAGCGUGGCAAAGUGGCUGUGGCUAGACUGCCUCUCUGGAUUCCUCGUCACUCAGCAGGGUAUCUCUGAGAGAAAUGCC,0.01
15,UACGUAGGUGGUUCUCCCCUGAUAGUGCUAAGGGGGCCUGGAAGUUUGGACUGGGCAGAGCACAACACAGCGUGGCAAAGUGGCUGUGGCUAGACUGCCUCUCUGGAUUCCUCGUCACUCCGCAGGGCAUCUCUGAGAGAAAUGCC,0.17
16,UACGUAGGUGGUUCUCCCCUGAUAGUGCUAAGGGGGCCUGGAAGUUUGGACUGGGCAGAGCUCAACACAGCGUGGCAAAGCGGCUGUGGCUAGACUGCCUCUCUGGAUUCCUCGUCUCUCAGCAGGGCAUCUCUGAGAAAAAUGCC,2.44
17,UACGUAGGUGGUUCUCCCCUGAUAGUGCUAAGGGGGCCUGGAAGUUUGGACUGGGCAGAGCUCAACACAGCGUGGCAAAGUGGCUGAGGCUAGACUGCCUCUCUGGAUCCCUCGUCACUCAGCAGGGCAUCUCUGAGAGAGAUGCC,0.12
18,UACGUAGGUGGUUCUCCCCUGAUAGUGCUAAGGGGGCCUGGAAGUUUGGACAGGGCAGAGCUCAACACAGCGUGGCAAAGUGGCUGUGGCUAGACUGCCUCUCUGGAUUCCUCGUCACUCAGCUGGGCAUCUCUGAGAGAAAUGCC,0
19,UACGUAGGUGGUUCUCCCCUGAUAGUGCUAAGGGGGCCUGGAAGUUUGGACAGGGCAGAGCUCAACACAGCGUGGCAAAGUGGCUGAGGCUAGACUGCCUCUCUGGAUUCCUCGUCACUCAGCAGGGCAUCUCUGAGAGAAAUGCC,0.14
